Out of some 94,000 compounds screened, about 6,200 (6.6%) were called active. The inconclusive results got no clear call from the source; some entries with a clear call stand among them for comparison. Calls come from the whole dose curve; as a rule, active = well fitted inhibition curve with a large enough effect; inconclusive = small, poorly fitted or top-dose-only effect; inactive = flat fitted curve, though single readings scatter. Potencies beside an inconclusive call are fits to weak or partial responses and may not hold up.
Assay: Cytotoxic Profiling in HEK 293 Cell Line of Diverse Libraries Using Quantitative High-Throughput Screening; note: nearly all actives have a fitted effect of over 60% in size
Conditions: HEK 293 viability, ATP luminescence (CellTiter-Glo), 48-72 h; series mostly up to 115 µM
How it was run: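 CellTiter-Glo luminescence (cellular ATP) was read after 48 or 72 hr of compound exposure at 37 degree Celsius. Cells were HEK 293 plated at 250 cells/well.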
Potency is the fitted concentration of half-maximal effect; tags give direction and shape of the fitted curve.

SMILES | Potency
COc1ccc(CN2C(=O)[C@@H]3C[C@@H](CN3Cc3cccnc3)Oc3ccccc32)cc1 | inconclusive: 100 µM [inhibitor, partial curve]
CCOc1ccc(C(=O)N2CCCC3(C2)Nc2cccnc2NC3=NC2CCCC2)cc1 (stereo unspecified) | inconclusive: 8.91 µM [inhibitor, full curve, poor fit]
Cc1cnc(CCNC(=O)c2cccs2)n1C1CCC1 | inactive
COc1cccc(CN2CC(O)CN([S+](=O)([O-])c3ccc(C)cc3)CC2=O)c1OC (stereo unspecified) | inconclusive: 79.4 µM [inhibitor, partial curve, poor fit]
COCCN(C)C[C@@H]1CN(c2cc(C)c3ccc(SC)cc3n2)C[C@@H]1CO | inconclusive: 50.1 µM [inhibitor, partial curve, poor fit]
COc1cccc(CCC(=O)N2CCC3(CC2)N=C(c2cccc(Br)c2)NO3)c1 | inconclusive: 79.4 µM [inhibitor, partial curve, poor fit]
COc1ccc(-c2cc3c(cn2)CN(Cc2cccnc2)CCN3)cc1F | inconclusive: 126 µM [inhibitor, single point]
Cc1cn2nc(C(=O)NCc3cccs3)cc2c(N2CCCC2)n1 | inactive
Cc1cccc(C(=O)N2CCc3[nH]nc(C(=O)NCCCc4ccccc4)c3C2)c1 | inconclusive: 50.1 µM [inhibitor, partial curve, poor fit]
CS(=O)(=O)c1ccc(O[C@H]2COCCN(Cc3cccc4c3OCO4)C2)cc1 | inconclusive: 112 µM [inhibitor, partial curve, poor fit]
Cn1cc(CN2C[C@@H](F)[C@@H](OCc3nc4ccccc4n3C)C2)c2ccccc21 | inconclusive: 100 µM [inhibitor, partial curve, poor fit]
CN(Cc1ccc(F)cc1)c1ccc2ncc(Nc3ccc(CCO)cc3)n2n1 | inconclusive: 63.1 µM [inhibitor, full curve, poor fit]
CNC(=O)c1cc(C2CC2)nc2onc(C3CCN(C(=O)Nc4ccc(Cl)cc4)C3)c12 (stereo unspecified) | inconclusive: 89.1 µM [inhibitor, single point]
CC(C)CCN1CCC2(C1)NC(=O)c1ccccc1CO2 (stereo unspecified) | inactive
c1csc(-c2nc3nccc(-c4ccncc4)n3n2)c1 | inactive
CCn1cc(S(=O)(=O)N2CCC3(CC2)CC2C(=O)NCCN2C3)cn1 (stereo unspecified) | inactive
COc1cc2c(cc1OC)C(C[C@H]1CN(C(=O)c3ccc(N(C)C)cc3)CC[C@H]1CC(=O)O)=NCC2 | inactive
Cc1cc(=O)n(CC(=O)NCc2cccs2)c(N(C)Cc2ccccc2)n1 | inconclusive: 50.1 µM [inhibitor, partial curve, poor fit]
Cc1cc(C(=O)NC2CCN(C(=O)N3CC4CC(C3)[C@H]3CCCC(=O)N3C4)CC2)nn1C (stereo partly specified) | inactive
O=C(N1CC(N(Cc2ccncc2)CC2CC2)C1)C1(c2ccccc2)CC1 | inactive
CC(C)Nc1ncc(C(=O)NC2CC(=O)N(Cc3cccc(F)c3)C2)cn1 (stereo unspecified) | inactive
CCCc1noc(-c2ccn3c(CNC(=O)C(C)Oc4ccccc4)nnc3c2)n1 (stereo unspecified) | inconclusive: 44.7 µM [inhibitor, partial curve, poor fit]

SMILES | Potency
COc1ccc(CC(=O)Nc2ccc(=O)n3c2[C@@H]2C[C@@H](CN(C(=O)Nc4ccc(F)cc4)C2)C3)cc1 | inactive
CCC(=O)N1CC(N(Cc2ccccc2)C2CCOCC2)C1 | inactive
Cc1ccc(-c2noc([C@@H]3C[C@H](NC(=O)COc4ccccc4)CN3C)n2)cc1 | inconclusive: 126 µM [inhibitor, partial curve, poor fit]
CSc1ccc(-c2cccc(CN3CCC(N[S+](=O)([O-])c4ccccc4)CC3)c2)cc1 | active: 28.2 µM
COc1ccc(C(=O)N2CCC(Oc3ccccc3)C2)cn1 (stereo unspecified) | inconclusive: 100 µM [inhibitor, single point]
Cc1ccc(C2(O)CCN(C(=O)c3cc4c(s3)CCCC4)CC2)nc1 | inactive
COC(=O)CNC(=O)c1cc(-c2cccc(C(F)(F)F)c2)nc2c1cnn2C | inactive
Cc1cnc(CC2CCN(S(=O)(=O)c3cccs3)C2)n1CC1CC1 (stereo unspecified) | inconclusive: 39.8 µM [inhibitor, full curve, poor fit]
CC(C)NC(=O)N1CCOc2ccc(CCC(=O)NC3CCS(=O)(=O)C3)cc2C1 (stereo unspecified) | inactive
CCC1Oc2ccc(NC(=O)Cc3ccc(OC)cc3)cc2CN(Cc2ccc3c(c2)OCO3)C1=O (stereo unspecified) | active: 22.4 µM
C[C@@H]1CN(C(=O)Cc2cc3c(cc2Cl)OCCO3)C[C@@]1(O)C1CCC1 | inconclusive: 56.2 µM [inhibitor, partial curve, poor fit]
O=C(Cc1ccccc1)NCC1CN(Cc2cccc(Cl)c2)CC12CN(c1ccccc1)C2 (stereo unspecified) | inconclusive: 79.4 µM [inhibitor, partial curve]
CC(C)(C)C(=O)N1CCOC[C@H]1c1ncc(-c2ccc(OC(F)(F)F)cc2)[nH]1 | inconclusive: 100 µM [inhibitor, partial curve, poor fit]
CC1(CCCCN2CCOCC2)COc2ccc(C(=O)NCc3ccccc3)cc2N1 (stereo unspecified) | inconclusive: 112 µM [inhibitor, single point]
CC(=O)Oc1ccccc1C(=O)Nc1ccc2c(c1)CN(Cc1ccc(Cl)cc1)C(=O)C(C)O2 (stereo unspecified) | inconclusive: 35.5 µM [inhibitor, full curve, poor fit]
CC(C)C(=O)Nc1ccc2c(c1)CN(CCc1ccc(F)cc1)C(=O)C(C)O2 (stereo unspecified) | inconclusive: 79.4 µM [inhibitor, single point]
CCN1CCc2[nH]cnc2C12CCN(C(=O)c1cccnc1SC)CC2 | inactive
CC(=O)N1CCC(C2CCN(C(=O)NCCc3ccccc3)C2)CC1 (stereo unspecified) | inactive
COc1cccc(-c2ccc(C(=O)NCCNC(=O)c3ccc(Cl)cc3)cc2)c1 | inactive
Cc1nnc(-c2cc(C(=O)NC3CCOCC3)ccn2)n1CCc1ccccc1 | inactive
CC(=O)Nc1ccc(S(=O)(=O)N[C@H]2C[C@@H](c3nc(C)no3)N(C)C2)cc1 | inactive
O=[S+]([O-])(c1ccccc1)N1CCCN(c2ccnc3ccnn23)CC1 | inconclusive: 28.2 µM [inhibitor, full curve]

SMILES | Potency
Cc1ccccc1-c1ccc(COc2ccc3c(cnn3CCC(=O)O)c2)cc1 | inconclusive: 89.1 µM [inhibitor, partial curve]
O=C(O)COc1ccc(-c2nccc3c2C(=O)N(Cc2c[nH]c4ccccc24)CC(CNC(=O)Cc2ccccc2)O3)cc1 (stereo unspecified) | inactive
CCCC(=O)Nc1cc(C2CCCC2)nn1C | inactive
COc1ccc(Nc2ccnc(N3CCC(C(=O)N4CCN(Cc5ccccc5)CC4)CC3)n2)cc1 | active: 31.6 µM
O=C(NCCc1ccccc1F)c1cc(-c2cccc(C(F)(F)F)c2)c2nncn2n1 | inconclusive: 50.1 µM [inhibitor, partial curve, poor fit]
COC(=O)[C@@H]1Cc2c([nH]c3ccccc23)[C@H]2C[C@@H](NCCCn3ccnc3)C[C@@H](c3ccccc3)N21 | inconclusive: 17.8 µM [inhibitor, full curve, poor fit]
COc1cccc(NC(=O)N[C@H]2C[C@@H](c3nc(-c4ccc(OC(F)(F)F)cc4)no3)N(C)C2)c1 | inconclusive: 56.2 µM [inhibitor, partial curve, poor fit]
COCCN1CCNc2cc(NCc3ccccc3)ncc2C1 | inconclusive: 10 µM [inhibitor, full curve, poor fit]
Cc1cccnc1CN1CCN2C(=O)N(Cc3ccc(F)cc3)C[C@H]2C1 | inconclusive: 100 µM [inhibitor, partial curve]
CCc1ccc(C(=O)N2CCC(c3n[nH]c(=O)n3Cc3ccc(C)cc3)CC2)cc1 | inconclusive: 28.2 µM [inhibitor, full curve]
COCC1CN(C(C)=O)CC12CCN(Cc1ccc(OC)c(C)c1)CC2 (stereo unspecified) | inactive
Cc1ccc(-c2nnc3ccc(N(C)c4cccc(C)c4)nn23)nc1 | active: 56.2 µM
COc1cc(F)ccc1-c1ccnc2nc(C3CCCCC3)nn12 | inconclusive: 56.2 µM [inhibitor, partial curve, poor fit]
COc1ccc(C(=O)N2CCC(N3C(=O)c4c(c(C)nn4-c4ccccc4)C3C(C)C)CC2)cc1 (stereo unspecified) | inactive
COc1ccccc1-c1cccc(CN2CCC(N[S+](=O)([O-])c3cccs3)CC2)c1 | inconclusive: 56.2 µM [inhibitor, partial curve, poor fit]
Cc1ccc(CC(=O)Nc2cccc(-c3nnc4n3CCCC4)c2)cc1 | inconclusive: 50.1 µM [inhibitor, partial curve, poor fit]
CC(=O)c1cccc(NC(=O)Cn2cccc2-c2nc(-c3ccc4c(c3)OCO4)no2)c1 | inconclusive: 79.4 µM [inhibitor, single point]
CCN1c2cc(C(=O)N3CCN(c4ccccc4)CC3)ccc2C(=O)N2CCCCC21 (stereo unspecified) | inconclusive: 44.7 µM [inhibitor, partial curve, poor fit]
O=C(CCc1ccccc1)N1CCC[C@H]1c1nc(-c2ccccc2Cl)no1 | inconclusive: 89.1 µM [inhibitor, single point]
CC(C)CN(C)C(=O)c1cc(-c2cnn(C(C)C)c2)nc2cc(F)ccc12 | inactive
COc1ccc(-c2cc(N3CCN(C(=O)c4c[nH]c5ccccc45)CC3)n[nH]2)cc1 | inconclusive: 50.1 µM [inhibitor, partial curve, poor fit]
Cc1cnc(CCNC(=O)Nc2ccc3c(c2)OCCO3)n1Cc1ccc(F)cc1 | active: 39.8 µM

— PubChem BioAssay AID1345083 (National Center for Advancing Translational Sciences (NCATS), 2018)
